Experimental data reported in PubChem BioAssay AID463173 (ICCB-Longwood Screening Facility, Harvard Medical School, 2010).
Screen size: about 52,000 compounds; about 4,300 (8.3%) were called active. No stated cut-off is given here; in the data, active means survival mostly below about 52% (no sharp cut-off); inactive means mostly above about 56%. The list shows a part of the results.

Tested on: DeltatarO mutant
Experiment: growth inhibition of S. aureus wild type versus tarO mutant, primary screen, teichoic acid synthesis inhibitors, RN4220, OD600 (AID 463173)
Conditions: OD600, 18 h, active compounds read low, screened at 18.75 µg/mL (by protocol)

Compound | survival
CCN(C(=O)c1cc(S(=O)(=O)N2CCc3ccccc32)cn1C)c1cccc(C)c1 | inactive: 71%
CC1=C(C(N)=O)C(c2ccc(F)cc2)n2nc(-c3ccc(N(C)C)cc3)nc2N1 (stereo not drawn) | inactive: 74%
CNS(=O)(=O)c1cn(CC(=O)Nc2ccc(C)c(N(C)C)c2)cc1S(=O)(=O)NC | inactive: 83%
Cc1ccc(C)c(NC(=O)OCC(C)C)c1 | inactive: 91%
COc1ccc(N2Cc3cccc(C(=O)Nc4ccc(C)c(C)c4)c3C2=O)cc1 | inactive: 85%
CCc1cccc(N2C(=O)CS(=O)(=O)C23C(=O)N(Cc2ccc(F)cc2)c2ccc(C)cc23)c1 (stereo not drawn) | inactive: 79%
O=C(NCCC1=CCCCC1)c1ccc2c(c1)N(Cc1ccccc1F)C(=O)c1ccccc1S2(=O)=O | inactive: 74%
Cc1ccc(NC(=O)CN2C(=O)C(C)(C)c3ccccc32)cc1 | inactive: 78%
CCOc1ccc(N2CC(NC(=O)Cc3ccccc3)CC2=O)cc1 (stereo not drawn) | inactive: 135%
O=C(Cc1cccs1)NC1CC(=O)N(c2ccc(Cl)cc2)C1 (stereo not drawn) | inactive: 67%
Cc1ccc(-c2nn3c(-c4ccccc4)nnc3c3ccccc23)cc1 | inactive: 86%
CC(C)Sc1ncc(Cl)c(C(=O)N(Cc2ccc(F)cc2)C2CCS(=O)(=O)C2)n1 (stereo not drawn) | inactive: 76%
Cc1cccc(C(=O)OCc2cc(=O)n3nc(C4CCCCC4)sc3n2)c1 | inactive: 78%
O=C(NC1CCCC1)C(c1ccncc1)N(CCCN1CCOCC1)C(=O)c1ccc(-c2ccccc2)[nH]1 (stereo not drawn) | inactive: 76%
Cc1c2cnn(-c3ccccc3)c(=O)c2c(C)n1C(C)C(=O)Nc1ccc(Br)cc1F (stereo not drawn) | inactive: 89%
CC(C)c1ccc2oc(-c3cccc(NC(=O)c4ccc5c(c4)OCCO5)c3)nc2c1 | active: 28%
Cc1ccc(-n2c(SCC(=O)Nc3cccc(F)c3)nc3c(oc4ccccc43)c2=O)cc1C | inactive: 82%
Cc1ccc2oc3c(c(=O)c2c1)C(c1cccc(O)c1)N(Cc1ccccc1Cl)C3=O (stereo not drawn) | inactive: 69%
COc1cccc(NC(=O)C2CCCN2S(=O)(=O)c2ccc3c(c2)C(C)(C)C(=O)N3C)c1 (stereo not drawn) | inactive: 104%
Cc1cc(C)cc(-n2ccn3c(CC(C)(C)CC(=O)O)nnc3c2=O)c1 | inactive: 69%

Compound | survival
C=CCN1C2=NCCCN2c2ccccc21 | inactive: 98%
CCN1c2cc(C)ccc2-n2cccc2C12CCN(C(=O)Nc1cc(OC)c(OC)c(OC)c1)CC2 | inactive: 93%
COc1ccc(N2CC(NC(=O)COc3ccccc3C)CC2=O)cc1OC (stereo not drawn) | inactive: 90%
CCOC(=O)c1c(NC(=O)c2ccc(S(=O)(=O)N3CCCC(C)C3)cc2)sc2c1CCN(C(C)C)C2 (stereo not drawn) | inactive: 75%
CCOC(=O)c1cc(-c2ccccc2)n(-c2cccc(C(=O)N(CC)c3ccccc3)c2)c1C | inactive: 73%
CCC(OC(=O)c1cc2sccc2n1C(C)C)C(=O)NCc1ccc(OC)cc1 (stereo not drawn) | inactive: 58%
Cc1cc(C)cc(NC(=O)C(=O)NC(C)c2ccccc2)c1 (stereo not drawn) | inactive: 69%
Fc1ccc(-c2ccc(CNCCSc3nnnn3-c3ccccc3)o2)cc1Cl | active: 39%
O=C(Nc1c(C(=O)Nc2cccc(F)c2)oc2ccccc12)c1cc2ccccc2o1 | active: 35%
CCNC(=O)c1ccc2nc(Cc3ccccc3)oc2c1 | inactive: 101%
COc1cc2[nH]c(=O)n(CCCCCC(=O)NCCc3ccccc3)c(=O)c2cc1OC | inactive: 76%
CCOc1ccc(/C=C/c2nc(C#N)c(Nc3ccc(OC)cc3)o2)cc1 | inactive: 72%
COc1ccc(OC)c(NC(=O)CCn2cnc3ccccc3c2=O)c1 | inactive: 96%
CCCOc1ccc(CN(C(=O)c2nc(SC(C)C)ncc2Cl)C2CCS(=O)(=O)C2)cc1 (stereo not drawn) | inactive: 70%
CSc1ccc(CCNC(=O)CCc2c(C)nc3cc(-c4ccccc4)nn3c2C)cc1 | inactive: 93%
CC(OC(=O)c1cc2sccc2n1C)C(=O)NC1CCCC1 (stereo not drawn) | inactive: 98%
CCc1ccc(-c2nc(-c3cc4ccccc4oc3=O)sc2C)cc1 | inactive: 144%
COc1cc(NC(=O)c2cnc3c(-c4ccc(F)cc4)c(C)nn3c2C)cc(OC)c1 | inactive: 122%
Cc1ccc(-c2nc3ccc(Cl)cn3c2Nc2ccc3c(c2)OCCO3)s1 | inactive: 107%
COc1ccc(CNC(=O)CN2C(=O)CCCc3ccccc32)cc1 | inactive: 89%

Compound | survival
COc1ccc(NC(=O)CC(C)n2nc(C)cc2C)cc1Cl (stereo not drawn) | inactive: 78%
COc1ccc(CCNC(=O)CCc2c(C)c3cc4c(C)c(C)oc4cc3oc2=O)cc1 | inactive: 96%
CCn1c(C(=O)Nc2cc(Cl)ccc2C)cc2sc(Cl)cc21 | inactive: 77%
CCOc1ccc(CCNC(=O)Cn2ncn3c(cc4ccccc43)c2=O)cc1OCC | inactive: 85%
CCOC(=O)c1c(NC(=O)COc2cccc(C(F)(F)F)c2)sc2c1CCCCC2 | active: 60%
CC(C)COc1ccc(C(=O)N2CCN(CCc3ccccn3)CC2)cc1 | inactive: 63%
COc1cccc(C2c3c(-c4ccccc4O)n[nH]c3C(=O)N2CCc2ccc(OC)c(OC)c2)c1 (stereo not drawn) | active: 8%
O=C(CSc1ncc(CO)n1Cc1ccccc1)Nc1ccc(C(F)(F)F)cc1 | inactive: 108%
O=C(Nc1nnc(S(=O)(=O)N2CCc3ccccc32)s1)c1ccccc1 | active: 12%
CC(=O)Nc1ccccc1C#N | inactive: 75%
O=C1Nc2ccccc2C1Cc1ccc(Br)cc1 (stereo not drawn) | inactive: 68%
Cc1ccc(NC(=O)CN2C(=O)c3ccccc3Sc3ccc(C(=O)N4CCOCC4)cc32)cc1C | inactive: 88%
CC1CCc2noc(NC(=O)c3ccc([N+](=O)[O-])cc3)c2C1 (stereo not drawn) | inactive: 93%
CCC(=O)N1CCc2cc(S(=O)(=O)NCCC(=O)Nc3ccc(C)cc3C)ccc21 | inactive: 81%
Cc1ccc(NC(=O)CSc2nc3nccnc3c(=O)n2CCc2c[nH]c3ccccc23)cc1C | active: 37%
O=C(Nc1nnc(C(F)(F)F)s1)c1ccccc1 | active: 24%
CCN(CC(O)COc1ccc(OCC(O)CN(CC)C2CCCCC2)cc1)C1CCCCC1 (stereo not drawn) | inactive: 88%
Cc1ccccc1OCCSc1nc2ccc(NC(=O)c3ccco3)cc2s1 | active: 25%
